Results: paper PMC11335249
Where a chain is given by its changes, count along the chain named. Results are given in words; binding and its absence hold for the method and conditions named. In cells and extracts the contact can be indirect. Some binding calls cover weakened binding; strength is not graded here. For part of these data: Where a sequence is shown, tags or fusion partners need not be part of it.

Protein sequences, listed by entry. Tags and fused reporters are not part of them.
UniProt Q14457: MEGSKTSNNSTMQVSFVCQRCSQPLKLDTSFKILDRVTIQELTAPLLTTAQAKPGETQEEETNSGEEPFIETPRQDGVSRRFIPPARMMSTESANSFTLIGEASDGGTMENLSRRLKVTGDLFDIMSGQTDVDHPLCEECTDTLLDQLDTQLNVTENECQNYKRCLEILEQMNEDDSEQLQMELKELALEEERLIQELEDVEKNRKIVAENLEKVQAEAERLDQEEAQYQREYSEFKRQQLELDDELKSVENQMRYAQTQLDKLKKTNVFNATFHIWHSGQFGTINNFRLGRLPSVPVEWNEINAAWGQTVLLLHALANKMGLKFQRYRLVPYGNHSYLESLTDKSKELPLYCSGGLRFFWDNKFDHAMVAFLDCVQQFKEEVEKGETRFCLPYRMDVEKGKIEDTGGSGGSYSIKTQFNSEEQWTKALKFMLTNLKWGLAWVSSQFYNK
UniProt P10415: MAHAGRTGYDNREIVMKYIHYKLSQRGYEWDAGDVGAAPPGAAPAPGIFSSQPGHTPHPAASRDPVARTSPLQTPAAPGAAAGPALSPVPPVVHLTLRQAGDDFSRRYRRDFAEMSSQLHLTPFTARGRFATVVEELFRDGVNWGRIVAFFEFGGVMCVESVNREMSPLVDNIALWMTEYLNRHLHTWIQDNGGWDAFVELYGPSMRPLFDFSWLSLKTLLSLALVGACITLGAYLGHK

How the values were obtained:
[1] = target: T1, TMEM9 S137D, flag-tagged (human) (UniProt Q9P0T7); assay: co-IP; HEK293T co-transfected with Beclin1-HA and flag-tagged TMEM9 (WT or point mutants); IP with Flag-M2 / anti-flag beads; blots with anti-HA and anti-flag; basal medium or EBSS for 6 h
T1 sequence: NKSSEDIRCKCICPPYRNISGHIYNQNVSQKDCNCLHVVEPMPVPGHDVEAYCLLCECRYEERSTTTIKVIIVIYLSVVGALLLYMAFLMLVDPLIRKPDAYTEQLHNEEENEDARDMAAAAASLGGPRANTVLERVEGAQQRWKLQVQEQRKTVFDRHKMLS

[2] = target: T2, TMEM9 N21Q, flag-tagged (human) (UniProt Q9P0T7); assay: as above
T2 sequence: T1 sequence with N1Q, D117S

TMEM9-WT-flag (human) = TMEM9-WT-flag (human) (UniProt Q9P0T7); assay: as above
[3] = target: T3, TMEM9 S137A, flag-tagged (human) (UniProt Q9P0T7); assay: as above
T3 sequence: T1 sequence with D117A

TMEM9-3NQ-flag (human) = target: T4, TMEM9-3NQ-flag (human) (UniProt Q9P0T7); assay: as above
T4 sequence: T1 sequence with N1Q, N18Q, N27Q, D117S

[4] = target: T5, TMEM9 N38Q, flag-tagged (human) (UniProt Q9P0T7); assay: as above
T5 sequence: T1 sequence with N18Q, D117S

[5] = target: T6, TMEM9 S144D, flag-tagged (human) (UniProt Q9P0T7); assay: as above
T6 sequence: T1 sequence with D117S, S124D

[6] = target: T7, TMEM9 2SA (S137A/S144A), flag-tagged (human) (UniProt Q9P0T7); assay: as above
T7 sequence: T1 sequence with D117A, S124A

[7] = target: T8, TMEM9 2SD (S137D/S144D), flag-tagged (human) (UniProt Q9P0T7); assay: as above
T8 sequence: T1 sequence with S124D

[8] = target: T9, TMEM9 N47Q, flag-tagged (human) (UniProt Q9P0T7); assay: as above
T9 sequence: T1 sequence with N27Q, D117S

[9] = target: T10, TMEM9 S144A, flag-tagged (human) (UniProt Q9P0T7); assay: as above
T10 sequence: T1 sequence with D117S, S124A

Beclin1-flag (human) [10] = target: Beclin1-flag (human) (UniProt Q14457); assay: co-IP; HEK293T co-transfected with TMEM9-HA, Beclin1-flag and Bcl-2 as indicated; basal medium or EBSS for 6 h; IP with anti-FLAG antibody; blots with anti-flag, anti-HA and anti-Bcl2
GST-TMEM9 (human) = GST-TMEM9 (human) (UniProt Q9P0T7); assay: pull-down; GST-TMEM9 immobilised on Glutathione Sepharose 4B and incubated with 35S-labelled in vitro translated Beclin1; binding buffer 20 mM Tris-HCl pH 7.2, 0.15 M NaCl, 0.2% Triton X-100; SDS-PAGE and autoradiography; only the target purified
Beclin1-flag (human) [11] = target: Beclin1-flag (human) (UniProt Q14457); assay: co-IP; HEK293T co-transfected with TMEM9-HA and Beclin1-flag; IP with Flag-M2 magnetic beads; blots with antibodies against TMEM9, Beclin1 and Rab9; lysis in modified RIPA buffer (1% CHAPS)
[12] = target: T11, TMEM9 90-183 (TMEM9 ΔN), HA-tagged (human) (UniProt Q9P0T7); assay: co-IP; HEK293T co-transfected for 48 h with HA-tagged TMEM9 (or deletion mutants) and Beclin1-flag (or deletion mutants); IP with anti-HA antibody; blots with anti-flag and anti-HA
T11 sequence: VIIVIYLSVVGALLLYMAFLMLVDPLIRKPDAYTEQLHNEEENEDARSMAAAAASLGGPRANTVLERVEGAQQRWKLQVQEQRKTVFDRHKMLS

TMEM9-HA (human) = TMEM9-HA (human) (UniProt Q9P0T7); assay: as above
TMEM9-VC (human) = TMEM9-VC (human) (UniProt Q9P0T7); assay: split reporter; BiFC with Venus fragments (VN, VC) in HeLa cells, 37 °C for 24 h, fixed with 4% PFA, confocal microscopy

Beclin1-HA (from UniProt Q14457 1-450)
binding [1]: binds
binding [2]: binds
binding (TMEM9-WT-flag (human)): binds
binding [3]: binds
binding (TMEM9-3NQ-flag (human)): no binding
binding [4]: binds
binding [5]: binds
binding [6]: binds
binding [7]: binds
binding [8]: binds
binding [9]: binds

Bcl-2 (from UniProt P10415 1-239)
binding (Beclin1-flag (human) [10]): binds

35S-Met-labeled Beclin1 (from UniProt Q14457 1-450)
binding (GST-TMEM9 (human)): binds

TMEM9-HA (from UniProt Q9P0T7 21-183)
binding (Beclin1-flag (human) [11]): binds
binding (Beclin1-flag (human) [10]): binds

Beclin1-flag (from UniProt Q14457 1-450)
binding [12]: binds
binding (TMEM9-HA (human)): binds

VN-Beclin1 (from UniProt Q14457 1-450)
binding (TMEM9-VC (human)): binds
